In the supplement of paper PMC8728848:
The list shows a part of the results.

Key:
Experiment in all cases: glycan array binding signal (z-score within array); higher = stronger binding
Details in all cases: glycan notation: IUPAC condensed, linker removed
[1] = molecular target: Man(a1-2)Man(a1-3)[Man(a1-2)Man(a1-6)]Man(a1-6)[Man(a1-2)Man(a1-2)Man(a1-3)]Man(b1-4)GlcNAc(b1-4)GlcNAc
Outline: (§1)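 Glycan array binding is given as a within-array Z-score, which can be read as non-binding when negative. The arrays, 3228 of them, came from the Consortium for Functional Glycomics database and were retained only where the protein sequence was available. Z-scores were averaged across arrays of the same protein sequence at different concentrations or buffers and across linkers.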

[2] = molecular target: Man(a1-2)Man(a1-3)[Man(a1-6)]Man(a1-6)[Man(a1-2)Man(a1-3)]Man(b1-4)GlcNAc(b1-4)GlcNAc
Outline: as §1

[3] = molecular target: Man(a1-2)Man(a1-6)[Man(a1-3)]Man(a1-6)[Man(a1-2)Man(a1-2)Man(a1-3)]Man
Outline: as §1

[4] = molecular target: Man(a1-2)Man(a1-6)[Man(a1-3)]Man(a1-6)[Man(a1-2)Man(a1-2)Man(a1-3)]Man(b1-4)GlcNAc(b1-4)GlcNAc
Outline: as §1

Man(a1-3)[Man(a1-6)]Man = molecular target: Man(a1-3)[Man(a1-6)]Man
Outline: as §1

[5] = molecular target: Man(a1-3)[Man(a1-6)]Man(a1-6)[Man(a1-2)Man(a1-3)]Man(b1-4)GlcNAc(b1-4)GlcNAc
Outline: as §1

[6] = molecular target: Man(a1-3)[Man(a1-6)]Man(a1-6)[Man(a1-3)]Man
Outline: as §1

[7] = molecular target: Man(a1-3)[Man(a1-6)]Man(a1-6)[Man(a1-3)]Man(b1-4)GlcNAc(b1-4)GlcNAc
Outline: as §1

[8] = molecular target: Man(a1-3)[Man(a1-6)]Man(b1-4)GlcNAc(b1-4)GlcNAc
Outline: as §1

[9] = molecular target: Man(a1-3)[Man(a1-6)]Man(b1-4)GlcNAc(b1-4)[Fuc(a1-6)]GlcNAc
Outline: as §1

Man(a1-6)Man = molecular target: Man(a1-6)Man
Outline: as §1

Man(b1-4)GlcNAc = molecular target: Man(b1-4)GlcNAc
Outline: as §1

Neu5Ac(a2-3)Gal = molecular target: Neu5Ac(a2-3)Gal
Outline: as §1

[10] = molecular target: Neu5Ac(a2-3)Gal(b1-3)GalNAc
Outline: as §1

[11] = molecular target: Neu5Ac(a2-3)Gal(b1-3)GalNAc(b1-3)Gal(a1-4)Gal(b1-4)Glc
Outline: as §1

[12] = molecular target: Neu5Ac(a2-3)Gal(b1-3)GalNAc(b1-4)[Neu5Ac(a2-3)]Gal(b1-4)Glc
Outline: as §1

[13] = molecular target: Neu5Ac(a2-3)Gal(b1-3)GalNAc(b1-4)[Neu5Ac(a2-8)Neu5Ac(a2-3)]Gal(b1-4)Glc
Outline: as §1

[14] = molecular target: Neu5Ac(a2-3)Gal(b1-3)GalNAc6S
Outline: as §1

[15] = molecular target: Neu5Ac(a2-3)Gal(b1-3)GlcNAc
Outline: as §1

[16] = molecular target: Neu5Ac(a2-3)Gal(b1-3)GlcNAc(b1-2)Man(a1-3)[GlcNAc(b1-4)][Neu5Ac(a2-3)Gal(b1-3)GlcNAc(b1-2)Man(a1-6)]Man(b1-4)GlcNAc(b1-4)GlcNAc
Outline: as §1

[17] = molecular target: Neu5Ac(a2-3)Gal(b1-3)GlcNAc(b1-3)Gal(b1-3)GlcNAc
Outline: as §1

[18] = molecular target: Neu5Ac(a2-3)Gal(b1-3)GlcNAc(b1-3)Gal(b1-4)GlcNAc
Outline: as §1

[19] = molecular target: Neu5Ac(a2-3)Gal(b1-3)GlcNAc(b1-3)GalNAc
Outline: as §1

[20] = molecular target: Neu5Ac(a2-3)Gal(b1-3)GlcNAc(b1-6)GalNAc
Outline: as §1

[21] = molecular target: Neu5Ac(a2-3)Gal(b1-3)GlcNAc6S
Outline: as §1

[22] = molecular target: Neu5Ac(a2-3)Gal(b1-3)[Fuc(a1-4)]GlcNAc
Outline: as §1

[23] = molecular target: Neu5Ac(a2-3)Gal(b1-3)[Fuc(a1-4)]GlcNAc(b1-3)Gal(b1-3)[Fuc(a1-4)]GlcNAc
Outline: as §1

[24] = molecular target: Neu5Ac(a2-3)Gal(b1-3)[Fuc(a1-4)]GlcNAc(b1-3)Gal(b1-4)[Fuc(a1-3)]GlcNAc
Outline: as §1

[25] = molecular target: Neu5Ac(a2-3)Gal(b1-3)[Neu5Ac(a2-3)Gal(b1-4)]GlcNAc
Outline: as §1

[26] = molecular target: Neu5Ac(a2-3)Gal(b1-3)[Neu5Ac(a2-6)]GalNAc
Outline: as §1

[27] = molecular target: Neu5Ac(a2-3)Gal(b1-3)[Neu5Ac(a2-6)]GlcNAc(b1-3)[Fuc(a1-3)[Gal(b1-4)]GlcNAc(b1-6)]Gal(b1-4)Glc
Outline: as §1

Neu5Ac(a2-3)Gal(b1-4)Glc = molecular target: Neu5Ac(a2-3)Gal(b1-4)Glc
Outline: as §1

[28] = molecular target: Neu5Ac(a2-3)Gal(b1-4)GlcNAc
Outline: as §1

[29] = molecular target: Neu5Ac(a2-3)Gal(b1-4)GlcNAc(b1-2)Man
Outline: as §1

[30] = molecular target: Neu5Ac(a2-3)Gal(b1-4)GlcNAc(b1-2)Man(a1-3)[GlcNAc(b1-2)Man(b1-4)GlcNAc(b1-2)Man(a1-6)]Man(b1-4)GlcNAc(b1-4)GlcNAc
Outline: as §1

[31] = molecular target: Neu5Ac(a2-3)Gal(b1-4)GlcNAc(b1-2)Man(a1-3)[Neu5Ac(a2-3)Gal(b1-4)GlcNAc(b1-2)Man(a1-6)]Man(b1-4)GlcNAc(b1-4)[Fuc(a1-6)]GlcNAc
Outline: as §1

[32] = molecular target: Neu5Ac(a2-3)Gal(b1-4)GlcNAc(b1-2)Man(a1-3)[Neu5Ac(a2-6)Gal(b1-4)GlcNAc(b1-2)Man(a1-6)]Man(b1-4)GlcNAc(b1-4)GlcNAc
Outline: as §1

[33] = molecular target: Neu5Ac(a2-3)Gal(b1-4)GlcNAc(b1-2)[Neu5Ac(a2-3)Gal(b1-4)GlcNAc(b1-6)]Man(a1-6)[Neu5Ac(a2-3)Gal(b1-4)GlcNAc(b1-2)Man(a1-3)]Man(b1-4)GlcNAc(b1-4)GlcNAc
Outline: as §1

[34] = molecular target: Neu5Ac(a2-3)Gal(b1-4)GlcNAc(b1-3)Gal
Outline: as §1

[35] = molecular target: Neu5Ac(a2-3)Gal(b1-4)GlcNAc(b1-3)Gal(b1-3)GlcNAc
Outline: as §1

[36] = molecular target: Neu5Ac(a2-3)Gal(b1-4)GlcNAc(b1-3)Gal(b1-4)GlcNAc
Outline: as §1

[37] = molecular target: Neu5Ac(a2-3)Gal(b1-4)GlcNAc(b1-3)Gal(b1-4)GlcNAc(b1-3)Gal(b1-4)GlcNAc
Outline: as §1

[38] = molecular target: Neu5Ac(a2-3)Gal(b1-4)GlcNAc(b1-3)Gal(b1-4)[Fuc(a1-3)]GlcNAc
Outline: as §1

[39] = molecular target: Neu5Ac(a2-3)Gal(b1-4)GlcNAc(b1-3)GalNAc
Outline: as §1

[40] = molecular target: Neu5Ac(a2-3)Gal(b1-4)GlcNAc(b1-3)[Neu5Ac(a2-3)Gal(b1-4)GlcNAc(b1-6)]GalNAc
Outline: as §1

B1: Morniga (Morus nigra) (protein)
chain: MAGTSTNTQTTGTSQTVEVGLWGGPGGNAWDDGSYTGIREINLSHGDAIGAFSVIYDLNGQPFTGPTHPGNEPSFKTVKITLDFPNEFLVSVSGYTGVLPRLATGKDVIRSLTFKTNKKTYGPYGKEEGTPFSLPIENGLIVGFKGRSGFVVDAIGVHLS
- glycan array binding signal (z-score) [1]: 0.503
- glycan array binding signal (z-score) [2]: -0.266
- glycan array binding signal (z-score) [3]: -0.325
- glycan array binding signal (z-score) [4]: -0.147
- glycan array binding signal (z-score) (Man(a1-3)[Man(a1-6)]Man): -0.336
- glycan array binding signal (z-score) [5]: 4.19
- glycan array binding signal (z-score) [6]: -0.322
- glycan array binding signal (z-score) [7]: 2.9
- glycan array binding signal (z-score) [8]: 5.03
- glycan array binding signal (z-score) [9]: 4.02
- glycan array binding signal (z-score) (Man(a1-6)Man): -0.344
- glycan array binding signal (z-score) (Man(b1-4)GlcNAc): -0.338
- glycan array binding signal (z-score) (Neu5Ac(a2-3)Gal): -0.344
- glycan array binding signal (z-score) [10]: -0.343
- glycan array binding signal (z-score) [11]: -0.342
- glycan array binding signal (z-score) [12]: -0.336
- glycan array binding signal (z-score) [13]: -0.332
- glycan array binding signal (z-score) [14]: -0.342
- glycan array binding signal (z-score) [15]: -0.331
- glycan array binding signal (z-score) [16]: 0.445
- glycan array binding signal (z-score) [17]: -0.332
- glycan array binding signal (z-score) [18]: -0.339
- glycan array binding signal (z-score) [19]: -0.338
- glycan array binding signal (z-score) [20]: -0.299
- glycan array binding signal (z-score) [21]: -0.34
- glycan array binding signal (z-score) [22]: -0.337
- glycan array binding signal (z-score) [23]: -0.328
- glycan array binding signal (z-score) [24]: -0.319
- glycan array binding signal (z-score) [25]: -0.344
- glycan array binding signal (z-score) [26]: -0.271
- glycan array binding signal (z-score) [27]: -0.329
- glycan array binding signal (z-score) (Neu5Ac(a2-3)Gal(b1-4)Glc): -0.331
- glycan array binding signal (z-score) [28]: -0.342
- glycan array binding signal (z-score) [29]: -0.286
- glycan array binding signal (z-score) [30]: 2.99
- glycan array binding signal (z-score) [31]: 1.34
- glycan array binding signal (z-score) [32]: 2.56
- glycan array binding signal (z-score) [33]: 0.705
- glycan array binding signal (z-score) [34]: -0.34
- glycan array binding signal (z-score) [35]: -0.325
- glycan array binding signal (z-score) [36]: -0.342
- glycan array binding signal (z-score) [37]: -0.342
- glycan array binding signal (z-score) [38]: -0.334
- glycan array binding signal (z-score) [39]: -0.339
- glycan array binding signal (z-score) [40]: -0.342
